The values below come from the supplement of paper PMC10126150.

This series has as its system ATP. Kind of series: switch fluorescence ratio, 500 uM ATP over buffer (Cy3 cluster intensity, sum of 5 cycles each) (fold (ratio)); higher = stronger signal-on switching upon ATP binding; sequences stand for … in TCGTCGGCAGCGTCAGATGTGTATAAGAGACAGTTTTTTTTTTTTTTTTTTTTTTTTT…TC. Particulars: aptamer strand: ATP DNA aptamer (quencher-CACCTGGGGGAGTATTGCGGAGGAAGG + anchor), 100 nM annealed; ATP concentration: 500 uM; one replicate. In a few lines:
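The quencher-labelled ATP aptamer, at 100 nM, was annealed to Cy3-labelled switching-strand clusters on a modified Illumina MiSeq flow-cell. The clusters were imaged in selection buffer, then after 15 min with 500 uM ATP at 22 °C, and this buffer/ATP cycle ran five times with NaOH stripping and re-annealing between runs. Per-cluster fluorescence ratios, summed target-cycle over summed buffer-cycle Cy3 intensity, were averaged per switch-domain sequence. Clusters outside 100-1000 RFU were excluded.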

Values marked as one replicate rest on one cluster of the flow cell; about a third of the high ones do not repeat.
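Also: ATP exposure 15 min at 22 °C before imaging.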

With ACCCGTACGG, the switch fluorescence ratio is 0.999.

In the case of CGATTACCCC, the switch fluorescence ratio came out at 1.1. With AGGGGTGACG the figure was 1.17. With TGCCTCGCGC the figure was 1.01; with CGGCGCTGCT, 1.03. With TGCACGTCCA the figure was 1.08. As for AGTAATGGGG, the switch fluorescence ratio turned out to be 0.958. With GAGAGAATAT the figure was 0.95; with TAAGTCCTCG, 1; with CGAGGCGCCA, 0.967. The value for GGTCGACTGG was 1; that for GAACGCAAGA was 3.43; that for GTGGTATACA was 0.968. With ACGGCGATCA the figure was 1.03.

With TTTGATGCTC, the switch fluorescence ratio turned out to be 1.06. The value for ATGTAACAGT was 1.01. Turning to CAAGGAAGCT, the switch fluorescence ratio stood at 1.11. The value for GGTCTAGCAA was 1.48; that for ATTTTGTCCC was 1.04; that for ATGCGAGGAC was 1.01. The value for GTCTGGTCGG was 0.998; that for GTTGGATGTT was 0.988.

On to TGAGGGATTG, for which the switch fluorescence ratio is 0.97. For the sequence CAGCCATGTG, the switch fluorescence ratio is 1.13. The value for ATGGTTTTAC was 0.99; that for GAGGTGGCGG was 0.976.

As to ACACACAGAA, the switch fluorescence ratio came out at 1.26. In the case of TTTCGTCGCT, the switch fluorescence ratio turned out to be 1.16. For TCGAATTACG, the switch fluorescence ratio came out at 1.1. With ATATTCGCCT the figure was 1.02; with GGTGGCCAA, 0.952. For the sequence GCCTCCCACG, the switch fluorescence ratio amounted to 1.05.

In the case of ATCAGGGC, the switch fluorescence ratio came out at 1.06. As to GCGGTGCAAG, the switch fluorescence ratio worked out at 0.993. With GATACGTCAC the figure was 2.06.

In the case of AAGTACCGAT, the switch fluorescence ratio amounted to 1.2. The value for CATCTAGGCT was 0.996. The value for ATGCAGGTGA was 1.2. The value for TACAAACTGG was 1.2. As for CAGATTCTAA, the switch fluorescence ratio turned out to be 0.992. The value for CTCAGAGCAA was 3.19; that for ATCAAAGTGC was 1.05; that for CCTCCCGAGT was 4.66. With CCAGGTAAA the figure was 1.01; with GAAAGCCAGA, 0.958; with ATCTCCAATC, 1.19. With TCATGAAGGT the figure was 0.982; with TCTGGGGACA, 0.959.

For CCGGCGGGTA, the switch fluorescence ratio is 1.03. With AACAGCGTAC the figure was 1.46. With TAGCCGGAAT the figure was 1.1; with GGCGAATTA, 0.972; with AAAAGGAGGT, 1.01. With CACAGTAGGT the figure was 1.05; with TGTTGGGTCA, 0.977. On to AGGATGCAA, for which the switch fluorescence ratio turned out to be 1.09. Regarding AGGGGCAATC, the switch fluorescence ratio amounted to 3.02.

For GCCTTGGTAG, the switch fluorescence ratio came out at 1.03.

As to CCACGACCT, the switch fluorescence ratio is 1.27. With AGGCTGAATC the figure was 0.982; with GGACCAAGGC, 1.05. The value for CTCAGGGATA was 1.18. With CTGTATAGTC the figure was 0.957. As to TGCTCCATTT, the switch fluorescence ratio was determined as 0.985. With AGGATTTGCT the figure was 0.999; with CTTAATGTT, 0.957. The value for GGGAAGAATT was 0.958; that for GCCGAGGCGT was 1.01. The value for AGCATAGAAT was 0.993; that for GGTGCGGGCC was 0.926. Take ACGTAATCTA: the switch fluorescence ratio is 1.22. With CGCGGCAGCT the figure was 0.986; with AGCTACATCA, 1.04; with CTTATCAAAA, 0.962. The value for AATCCAATTG was 0.993; that for TTATCACCAC was 1.04.

GCGATCGGGG: the switch fluorescence ratio stood at 0.958. With TAAATGAAAG the figure was 1.03; with CCTATGAGCC, 1.12; with AAATGGCTCG, 1.04. With ACCGTGTCAC the figure was 1.02; with ACGTCAGTGG, 0.996.

For AACTTGTAAC, the switch fluorescence ratio was found to be 1.02. Turning to ACACAAATG, the switch fluorescence ratio is 1.01. With CTAACCCAGC, the switch fluorescence ratio is 1.12.

Take TAACAGAACA: the switch fluorescence ratio worked out at 1.02. With TCTCTCGTGC the figure was 1.31; with TTGCGTCAC, 1.03; with CGGCCAGGAT, 0.997. For the sequence GATCTCCTTT, the switch fluorescence ratio was 0.975. The value for GGGTGGCTTA was 0.984. With TCTGGTATT the figure was 1.03. The value for GGCCATGTCT was 0.973.

Consider GATTATACTA, for which the switch fluorescence ratio turned out to be 0.968. The value for TGGGGACT was 1.01; that for TCTAAGAGCT was 0.937; that for TCATTTGACA was 0.974. The value for CAAGTACGTA was 1.12.

As for AGCGATGCCC, the switch fluorescence ratio was 1.01. With TATTTTTTGC the figure was 0.978; with TAAATAACCC, 1.02. Regarding CCTCGTATAG, the switch fluorescence ratio was determined as 1.42. Take GTTGTTAGCT: the switch fluorescence ratio is 1.01. On to TGACAGAAGC, for which the switch fluorescence ratio was 1.02. The value for GAGCTGATGT was 1; that for CACCGACGTC was 1.36; that for AAATTTCACA was 1.03. With ATATGTTGTA the figure was 0.941. With CATGAGCAA the figure was 2.96; with TGCTGGGCAC, 1.02. Turning to ACAGTAGGTA, the switch fluorescence ratio was found to be 1. With TTGGCACTTT the figure was 1.09; with TCAGTTAATG, 1.06. The value for CTAAGAATCA was 1; that for TCATGACTA was 0.964; that for GCACTTTCAT was 1.01. As for TCTATATTTG, the switch fluorescence ratio was found to be 1.02. With TTGTATGTT the figure was 1. With TGTTGATTCT, the switch fluorescence ratio was 1.02. The value for TGAGGGATCG was 1.08.
